# Test results as given in PubChem BioAssay AID504845 (National Center for Advancing Translational Sciences (NCATS), 2011).
# The whole screen tested about 390,000 compounds, of which about 150 (0.038%) were called active. This list was built around the results that the source calls inconclusive (neither active nor inactive); the mix of calls is not that of the screen. Calls follow the shape of the dose curve; as a rule, active = well fitted inhibition curve with a large enough effect; inconclusive = small, poorly fitted or top-dose-only effect; inactive = no such curve, though single readings can be large or run the other way. Where the call is inconclusive, the potency comes from a doubtful curve fit.
# Biological target: Regulator of G-protein signaling 4 (Homo sapiens) (UniProt P49798)
# Assay: Inhibitors of Regulator of G Protein Signaling (RGS) 4: qHTS; also: nearly all actives have a fitted effect of over 75% in size
# Settings: Transcreener GDP fluorescence polarization, RGS4-accelerated GTP hydrolysis; series mostly up to 114 µM; activity change, negative = inhibition: at the top concentration
# Outline: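 MLSMR compounds (23 nl, pin-transferred) preincubated 10 min at room temperature with a 500nM (2x) first reagent, then RGS4 at 900nM (2x) plus Transcreener GDP mix added; fluorescence polarization (620/688 nm) read before and after 90 min at 30 °C.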
# % is scaled to controls: 0 for no effect and ±100 for the full control effect; potency is read from the fitted curve at half-maximal effect; tags tell the direction and shape of the fitted curve.
# Chain of UniProt P49798 (P49798 whole entry, looked up): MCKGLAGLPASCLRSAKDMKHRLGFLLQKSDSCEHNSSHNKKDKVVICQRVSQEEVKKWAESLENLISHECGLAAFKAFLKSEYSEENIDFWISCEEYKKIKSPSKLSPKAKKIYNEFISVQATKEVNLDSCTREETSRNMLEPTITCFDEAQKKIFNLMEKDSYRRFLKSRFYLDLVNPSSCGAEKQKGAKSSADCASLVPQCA
SMILES,"activity change, negative = inhibition",Potency
CCCc1c2ccccc2nc2ccccc12,inactive: -30.7%,–
COc1ccc(-c2nnn(CC(=O)N(CC(=O)NC3CCCC3)c3ccccc3)n2)cc1OC,–,"inconclusive: 28.2 µM [inhibitor, full curve, poor fit]"
O=c1[nH]c(/C=C/c2ccc([N+](=O)[O-])cc2)c([N+](=O)[O-])c(=O)[nH]1,–,"inconclusive: 79.4 µM [inhibitor, partial curve, poor fit]"
NC(=S)Nc1cc2ccccc2c2ccccc12,–,"inconclusive: 44.7 µM [inhibitor, partial curve, poor fit]"
CC(=O)Nc1cc(C)ns1,–,"inconclusive: 89.1 µM [inhibitor, single point]"
Cc1cccc(C)c1-n1c(C)cc(/C=N/NC(N)=S)c1C,–,"inconclusive: 39.8 µM [inhibitor, partial curve, poor fit]"
CC1=C(C)/C(=N\OS(=O)(=O)c2ccccc2)C=CC1=O,–,"inconclusive: 28.2 µM [inhibitor, full curve, poor fit]"
CCCCOc1ccc(C(O)(CCN2CCOCC2)c2ccccc2)cc1 (centres undefined),inactive: 8.95%,–
CCSc1nc(C2CC2)cc(-c2ccco2)c1C#N,–,"inconclusive: 89.1 µM [inhibitor, single point]"
COc1ccc(CCNc2nc(C)c(C(C)=O)s2)cc1OC,–,"inconclusive: 31.6 µM [inhibitor, full curve, poor fit]"
O=C(c1cc(-c2ccccc2)nc2ccccc12)N1CCN(c2ccccc2O)CC1,inactive: -40.9%,–
COC(=O)CN(c1cc(Cl)ccc1OC)S(=O)(=O)c1ccc(C)cc1,inactive: 4.41%,–
CCCCN(C)C(=O)Cc1c(OC)ccc2cc(Br)ccc12,–,"inconclusive: 39.8 µM [inhibitor, partial curve, poor fit]"
COc1cccc2[nH]c3c(N4CCc5ccccc5C4)ncnc3c12,inactive: 6.6%,–
O=C(/C=C\c1ccco1)Oc1cccc2cccnc12,inactive: -26.3%,–
COC(CN(C)C(=O)C1CCC(CNS(=O)(=O)c2ccc(C)cc2)CC1)OC (centres undefined),–,"inconclusive: 22.4 µM [inhibitor, full curve, poor fit]"
CCCn1c(SCC(=O)N(C)C2CCS(=O)(=O)C2)nc2sc3c(c2c1=O)CCC3 (centres undefined),inactive: -46.3%,–
CCOC(=O)c1cc(-c2ccccc2)sc1N,inactive: -49.6%,–
Nc1nn2c(-c3ccccc3)cc(=O)[nH]c2c1N=Nc1ccc(O)cc1,–,"inconclusive: 50.1 µM [inhibitor, partial curve, poor fit]"
Cc1cccc(N2C(S)=C(C#N)C(=O)NC23CCCCC3)c1,–,"inconclusive: 17.8 µM [inhibitor, full curve, poor fit]"
CCn1c(CSc2nccn2C)nc2cc(C(=O)O)ccc21,–,"inconclusive: 50.1 µM [inhibitor, partial curve, poor fit]"
COC(=O)c1ccc(NC(=O)c2nn(C)c3c2CS(=O)(=O)c2ccccc2-3)cc1,inactive: -1.72%,–
O=c1c(Cl)c(N/N=C/c2ccc(Cl)cc2)cnn1-c1ccccc1,–,"inconclusive: 20 µM [inhibitor, full curve, poor fit]"

SMILES,"activity change, negative = inhibition",Potency
CN(Cc1ccccc1)C(=O)NC1CCCCC1,inactive: 25.7%,–
CCC(=O)N1CCc2cc(S(=O)(=O)NC(C(=O)NCc3ccc(OC)cc3)C(C)C)ccc21 (centres undefined),inactive: 1.43%,–
N#CC1=C(N)Oc2[nH]c(=S)[nH]c(=O)c2C12C(=O)Nc1ccccc12 (centres undefined),–,"inconclusive: 50.1 µM [inhibitor, partial curve, poor fit]"
Cc1ccc(COc2ccccc2C(=S)N2CCCC2)cc1,–,"inconclusive: 100 µM [inhibitor, partial curve, poor fit]"
C1=CC2=NC34CCCCC3CC3=C(CCCC3)N4C2=CC1=NC1CCCCC1 (centres undefined),–,"inconclusive: 15.8 µM [inhibitor, partial curve, poor fit]"
CC(C)(C)OC(=O)N1CCC(c2c(C(=O)N3CCN(C4CCCCC4)CC3)cnn2-c2cccc(Cl)c2)CC1,inactive: 8.18%,–
CCc1ccc(-c2csc(NC(=O)C3CC(=O)N(c4ccc5c(c4)OCCO5)C3)n2)cc1 (centres undefined),–,"inconclusive: 79.4 µM [inhibitor, single point]"
O=C1C2=C(Nc3ccccc3SC2c2c(F)cccc2Cl)c2ccccc21 (centres undefined),–,"inconclusive: 89.1 µM [inhibitor, partial curve, poor fit]"
O=C(NCc1ccc2c(c1)OCO2)C1CC(c2ccc(Cl)c(Cl)c2)=NO1 (centres undefined),inactive: 1.53%,–
CCOc1ccc(C(=O)NCC(=O)NCCSc2ccc(Br)cc2)cc1OCC,–,"inconclusive: 89.1 µM [inhibitor, single point]"
CC(C)n1cc(/C=N/Nc2ccc(C(=O)O)cc2)c2ccccc21,inactive: -25.5%,–
CC(C)N(C(=O)COC(=O)c1cncc(Br)c1)C(C)C,–,"inconclusive: 50.1 µM [inhibitor, partial curve, poor fit]"
C=CCn1cccc(C(=O)Nc2ccc(OCC)cc2)c1=O,–,"inconclusive: 100 µM [inhibitor, single point]"
COc1cc(NC(=O)CSc2ccc(-c3ccco3)nn2)cc(OC)c1,–,"inconclusive: 44.7 µM [inhibitor, partial curve, poor fit]"
COCCCNC(=O)c1c(C)nn(-c2ccc(F)cc2)c1-n1cccc1,inactive: 15.3%,–
COc1ccc(O)c(C(=O)CC(=O)c2ccc(F)cc2)c1,inactive: -35%,–
O=C(c1cccc(Cl)c1Cl)N(Cc1ccco1)Cc1cccs1,–,"inconclusive: 17.8 µM [inhibitor, full curve, poor fit]"
O=[N+]([O-])c1cc(CN2CCOCC2)c2cccnc2c1O,–,"inconclusive: 50.1 µM [inhibitor, partial curve, poor fit]"
CCOc1ccc2c(c1)C(NC(C)=O)C(=O)N2CCN1CCOCC1 (centres undefined),–,"inconclusive: 28.2 µM [inhibitor, full curve, poor fit]"
CNC(=S)NCCc1cc2c(OC)ccc(OC)c2[nH]c1=O,–,"inconclusive: 44.7 µM [inhibitor, partial curve, poor fit]"
COc1ccc(CNC(=O)CN2CCN(c3cccc(C)c3C)CC2)cc1,inactive: -5.95% [at 56.9 µM],–
O=C(NCc1nc2ccccc2[nH]1)C1=C[C@@H](c2ccc(C(F)(F)F)cc2)C[C@@H](OCc2ccc(CO)cc2)O1,inactive: -8.44%,–
C=C(C)C(=O)OC1(C(F)(F)F)Oc2cc(C)ccc2NC1=O (centres undefined),inactive: -0.105% [at 11.4 µM],–

SMILES,"activity change, negative = inhibition",Potency
Cc1ccc(N)cc1-n1c(C)ccc1C,–,"inconclusive: 100 µM [inhibitor, single point]"
COC(=O)C1=C(C)N(c2cccc(Cl)c2)C(=O)C1,inactive: 13.2%,–
Cc1ccnc(NC(=O)Nc2ccc(Br)cc2Cl)c1,–,"inconclusive: 89.1 µM [inhibitor, partial curve, poor fit]"
O=C(COC(=O)CCNS(=O)(=O)c1ccccc1F)Nc1nnc(-c2ccccc2)o1,–,"inconclusive: 100 µM [inhibitor, single point]"
CCc1ccc(C(=O)NNC(=O)OC)cc1,–,"inconclusive: 79.4 µM [inhibitor, partial curve, poor fit]"
CCOC(=O)c1c(-c2ccc(C)o2)csc1NC(=O)CN1CCCCC1,–,"inconclusive: 50.1 µM [inhibitor, partial curve, poor fit]"
COc1ccc(-n2ccnc2SCC(=O)Nc2ccc3c(c2)OCO3)cc1,inactive: -18%,–
C#CCSc1nncn1C(=O)/C=C/c1ccccc1,inactive: -18.9%,–
CC(C)c1ccc(OCC(=O)NCCO)cc1,–,"inconclusive: 50.1 µM [inhibitor, partial curve, poor fit]"
CCOC(=O)c1c(O)c(Cl)c(C)[nH]c1=O,–,"inconclusive: 50.1 µM [inhibitor, partial curve, poor fit]"
COc1ccc(-c2nc(SCC(=O)Nc3ccc4c(c3)OCCO4)c(-c3ccc(F)cc3)[nH]2)cc1,–,"inconclusive: 89.1 µM [inhibitor, single point]"
CCOC(=O)c1cnc(Nc2nc3ccccc3o2)nc1CN1CCN(C)CC1,–,"inconclusive: 89.1 µM [inhibitor, single point]"
O=C(COC(=O)CCc1c[nH]c2ccccc12)NC(c1ccccc1)c1ccccc1,inactive: -11.7%,–
COc1ccc2ccccc2c1CN1CCN(C(=O)c2ccco2)CC1,inactive: -20.3%,–
CCOC(=O)c1c(-c2ccc(C)cc2)csc1NC(=O)c1cc(=O)c2cc(C)ccc2o1,–,"inconclusive: 28.2 µM [inhibitor, full curve, poor fit]"
CC(C)n1c(O)c(N=NC(=O)c2ccccc2NS(=O)(=O)c2cccs2)c2ccccc21,–,"inconclusive: 31.6 µM [inhibitor, full curve, poor fit]"
NC(=O)C1CCN(Cc2nc(-c3ccccc3)no2)CC1,inactive: -9.83%,–
COc1ccc2c(c1)c(=O)oc1cc(OCC(=O)N3CCCC(C)C3)ccc12 (centres undefined),–,"inconclusive: 79.4 µM [inhibitor, single point]"
CC(=O)Nc1cccc(NC(=O)CSc2ccc(-c3ccco3)nn2)c1,inactive: -17.4%,–
COc1ccc(-c2cc(=O)c3c(C)cc(O)cc3o2)cc1,–,"inconclusive: 79.4 µM [inhibitor, partial curve, poor fit]"
O=C(/C=C/c1ccc(Cl)cc1)Nc1ccc(N2CCOCC2)cc1,–,"inconclusive: 50.1 µM [inhibitor, partial curve, poor fit]"
C=CCn1cccc(/C=C/C(=O)c2ccc(C(C)(C)C)cc2)c1=S,–,"inconclusive: 50.1 µM [inhibitor, partial curve, poor fit]"
CC/C(=C\c1oc2cc3ccccc3cc2[n+]1CC)Nc1ccccc1,–,"inconclusive: 79.4 µM [inhibitor, partial curve, poor fit]"
